Measurements reported in paper PMC4336329 (PLoS ONE, 2015).
The campaign covered roughly 310,000 compounds. About 14,000 (4.5%) showed an effect of 50% or more. Effects have a minus sign here. This is one part of the list.

target: human ether-à-go-go-related gene (hERG) potassium channel (human, UniProt Q12809); test: primary screen, population patch clamp on CHO cells stably expressing hERG
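Note: peak tail current of the secondary pulse compared with the same well before compound.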

Chain of human ether-à-go-go-related gene (hERG) potassium channel (Q12809 whole entry, looked up): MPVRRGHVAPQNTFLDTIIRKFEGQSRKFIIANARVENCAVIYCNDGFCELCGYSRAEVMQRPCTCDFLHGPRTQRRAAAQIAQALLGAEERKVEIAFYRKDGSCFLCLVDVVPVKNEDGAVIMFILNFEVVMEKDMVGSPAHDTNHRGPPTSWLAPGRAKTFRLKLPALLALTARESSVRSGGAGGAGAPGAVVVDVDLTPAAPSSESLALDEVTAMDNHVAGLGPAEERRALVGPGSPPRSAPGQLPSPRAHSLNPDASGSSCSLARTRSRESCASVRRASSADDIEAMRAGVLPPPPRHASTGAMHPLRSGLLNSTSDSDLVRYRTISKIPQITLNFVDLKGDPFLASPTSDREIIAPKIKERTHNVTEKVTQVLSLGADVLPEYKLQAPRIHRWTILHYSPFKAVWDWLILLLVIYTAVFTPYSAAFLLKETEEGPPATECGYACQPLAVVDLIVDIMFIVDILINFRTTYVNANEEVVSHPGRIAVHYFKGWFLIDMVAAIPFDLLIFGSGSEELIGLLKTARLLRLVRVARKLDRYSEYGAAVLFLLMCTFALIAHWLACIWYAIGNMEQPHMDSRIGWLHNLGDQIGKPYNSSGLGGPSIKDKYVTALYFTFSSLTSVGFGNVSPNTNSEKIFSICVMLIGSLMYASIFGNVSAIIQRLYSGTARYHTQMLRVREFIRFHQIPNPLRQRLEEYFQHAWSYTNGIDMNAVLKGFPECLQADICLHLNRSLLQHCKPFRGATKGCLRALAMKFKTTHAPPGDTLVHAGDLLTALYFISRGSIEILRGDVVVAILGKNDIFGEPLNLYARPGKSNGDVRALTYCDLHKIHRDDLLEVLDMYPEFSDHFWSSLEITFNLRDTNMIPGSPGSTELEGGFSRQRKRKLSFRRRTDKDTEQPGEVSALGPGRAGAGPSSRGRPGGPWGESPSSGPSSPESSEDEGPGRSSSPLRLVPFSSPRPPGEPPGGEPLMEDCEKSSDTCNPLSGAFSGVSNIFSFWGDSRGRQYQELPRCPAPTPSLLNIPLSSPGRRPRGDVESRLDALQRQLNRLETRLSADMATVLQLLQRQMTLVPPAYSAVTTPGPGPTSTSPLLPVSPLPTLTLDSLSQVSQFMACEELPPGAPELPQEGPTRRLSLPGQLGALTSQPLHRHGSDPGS

Point of comparison: `CCOc1ccccc1NC(=O)C1CCN(S(=O)(=O)c2c(C)nn(C)c2C)CC1`, “hERG current change (%, negative = inhibition) at 10uM” value -4.45%. Against it:
- CC(=O)Nc1ccc(S(=O)(=O)N2CCN(c3nnnn3-c3ccccc3)CC2)cc1 — higher, 13.1%
- COc1ccc(S(=O)(=O)N2CCCCC2)cc1NC(=O)CNc1ccccc1N1CCCC1=O — lower, -20.4%
- Cc1ccc(-n2c3c(c(O)c(-c4ccccc4)c2=O)C(=O)CC(C)(C)C3)cc1 — lower, -55.2%
- COc1ccc(NC(=S)N2CCC(NC(=O)c3ccccc3C)CC2)cc1 — higher, 19.6%
- c1ccc(CCNCC2COc3ccccc3O2)cc1 (centres unmarked) — lower, -6.6%
- CCN(C(=O)CSc1nc2cc(Cl)ccc2c(=O)n1Cc1ccco1)C1CCS(=O)(=O)C1 (centres unmarked) — lower, -74.7%
- CC(C)NC(=O)C1CCN(C(=O)c2ccc(-c3ccccc3)cc2)CC1 — higher, -1.8%
- COc1ccccc1NC(=O)C(C)Sc1nc(-c2ccccc2)cn1N (centres unmarked) — lower, -45.3%
- Cc1ccnc(NS(=O)(=O)c2ccc(NC(=O)c3ccc(N4C(=O)CCC4=O)cc3)cc2)n1 — higher, 7.58%
- Cc1cccc(C)c1OC(=O)CCN1C(=O)C2C3C=CC(C4CC34)C2C1=O (centres unmarked) — higher, 1.91%
- COc1cccc(/C=C2/SC(=S)N(CCC(=O)N3CCOCC3)C2=O)c1 — higher, 15.2%
- O=S(=O)([N-]c1nc2ccccc2nc1-[n+]1ccc(Cc2ccccc2)cc1)c1ccc(Br)s1 — lower, -36.3%
- CCn1cc(C(=O)N2CCCC2)c(=O)c2cc(S(=O)(=O)N(C)C)ccc21 — higher, 7.8%
- Cc1ccc(S(=O)(=O)c2nnn3c2nc(N2CCN(c4ccccn4)CC2)c2ccccc23)cc1 — higher, -1.69%
- CCOC(=O)c1cccc(COC(=O)c2cccc(-c3nnc(-c4ccccc4)o3)c2)c1 — higher, -2.94%
- O=C(CCCN1CCC(n2c(=O)[nH]c3ccccc32)CC1)c1ccc(F)cc1 — lower, -73%
- NC(=O)CSc1nnc(NC(=O)C23CC4CC(CC(C4)C2)C3)s1 — higher, 0.0407%
- COC(=O)CSc1nnc(CNC(=O)c2cc(OC)cc(OC)c2)n1-c1ccc(F)cc1 — lower, -4.55%
- CCN(CC)C(=O)C1CCCN(C(=O)Nc2ccc(NC(=O)N3CCCC(C(=O)N(CC)CC)C3)cc2)C1 (centres unmarked) — lower, -11.5%
- CCN(CC)C(=O)c1cn(CC)c(=O)c2cc(OC)c(OC)cc12 — higher, -3.19%
- COc1cc2c(cc1OC)CN(C(C)C(=O)N1CCc3ccccc31)CC2 (centres unmarked) — lower, -14%
- CC(NC(=O)c1ccco1)c1nc(-c2ccc(Cl)cc2)no1 (centres unmarked) — lower, -17.3%
- COc1ccc(OC)c(CNC(=O)CCSCc2ccc(F)cc2Cl)c1 — lower, -17.2%
- Nc1c2c(=O)oc(-c3ccccc3)cc2nn1-c1ccccc1 — lower, -8.65%
- N#C/C(=C\c1ccc(-c2ccccc2Cl)o1)C(=O)Nc1nc2ccccc2s1 — higher, 32.7%
- CCc1cc(=O)oc2c(CNCc3ccccc3F)c(O)c(Cl)cc12.Cl — higher, 9.4%
- CN(C)c1nc(N)ncc1-c1ccc(Oc2ccccc2)cc1 — higher, 18%
- CCCc1ccc(-c2csc(NC(=O)Cc3cccs3)n2)cc1 — higher, 16.9%
- CCc1ccc(-c2cnc3ccccc3n2)cc1NC(=O)CNC(=O)c1ccccc1 — higher, 18.9%
- COc1ccc(CCNS(=O)(=O)c2ccc(OC)cc2)cc1 — lower, -20.1%
- Cc1cccc(N(C(=O)CCC(=O)Nc2cccnc2)C(C(=O)NC2CCCC2)c2ccncc2)c1 (centres unmarked) — higher, 8.74%
- CC(=O)Nc1c(C(=O)N2CCN(c3ccccn3)CC2)cnn1-c1ccc(C)cc1 — higher, -3.36%
- CCC(CC)C(=O)N1c2ccc(F)cc2CCC1C (centres unmarked) — higher, -1.76%
- O=C(Cn1c(=O)oc2cccnc21)Nc1ccccc1Oc1ccc(Cl)cc1Cl — higher, 5.55%
- O=C(Cc1cccs1)NC(c1ccccc1)c1ccccc1 — higher, 4.82%
- CCc1oc2ccccc2c1C(=O)c1cc(Br)c(O)c(Br)c1 — lower, -17.3%
- O=C1C=C(c2cccc(Cl)c2)C[C@@H](c2ccc(F)cc2)C1 — higher, 3.62%
- COc1cccc(C(O)Cc2nc3ccccc3n2C)c1OC (centres unmarked) — higher, 23.7%
- C=CCOc1ccccc1/C=N/O — lower, -8.21%
- Cc1ccc(-c2nc3ncccc3o2)cc1NC(=O)c1sc2ccccc2c1Cl — higher, 5.72%
- COc1ccc(C(=O)CC(Nc2ccc([N+](=O)[O-])cc2)c2ccc(OC)cc2)cc1 (centres unmarked) — lower, -8.47%
- CCc1cc(C(=O)N2CCCC(N3CCN(c4cccc(C(F)(F)F)c4)CC3)C2)n(C)n1 (centres unmarked) — lower, -37.6%
- Cc1ccc(NC(=O)CCCn2nc(C)c3c(C)n(-c4ccccc4)nc3c2=O)cc1C — higher, 24.6%
- CCOC(=O)C1CCCN(Cc2ccc(OC)c(OCc3ccccc3)c2)C1 (centres unmarked) — lower, -46.1%
- Cc1ccc(NC(=O)c2ccc(Br)o2)cc1S(=O)(=O)N(C)C — lower, -54.7%
- CCOC(=O)C1(CCc2ccccc2)CCN(C(=O)CCn2cnnn2)CC1 — lower, -43.2%
- COc1ccc2c(Cl)c(C(=O)N/N=C/c3ccncc3)sc2c1 — higher, 13.9%
- O=C(Cn1c(-c2ccccc2)c[n+]2ccsc12)c1ccc(Br)cc1.[Br-] — lower, -32.2%
- O=C(COc1ccc2c3c(c(=O)oc2c1)CCCC3)N1C[C@H]2C[C@@H](C1)c1cccc(=O)n1C2 — lower, -12.2%
- CCOC(=O)c1ccc2[nH]c(C)c(C)c2c1 — higher, -2.18%
- CC(C)C[C@@H](CC#N)N1CCN(CCc2ccccc2)CCC1=O — higher, 2.01%
- C/C(=N\N=C(/N)SC1CC(=O)N(c2cccc(Cl)c2)C1=O)c1cccs1 (centres unmarked) — higher, 15.9%
- S=C(Nc1ccc2cn[nH]c2c1)Nc1ccccc1Cl — lower, -4.68%
- CCOc1ccc2oc(=O)cc(CN3CCN(C(=O)c4ccco4)CC3)c2c1 — lower, -69.4%
- O=C(COC(=O)CNC(=O)c1ccc(F)cc1)Nc1cccc(S(=O)(=O)N2CCCC2)c1 — lower, -12%
- CCOC(=O)CSc1nnc(-c2cccc(Cl)c2)n1CC — higher, -3.47%
- CC(=O)N1N=C(c2cccc([N+](=O)[O-])c2)OC1c1ccc(Br)cc1 (centres unmarked) — lower, -7.59%
- COc1ccccc1NC(=O)COC(=O)Cc1cccs1 — higher, 14.1%
- Cc1cccc(C)c1OCCSc1nc2ccccc2n1CC(=O)O — higher, 8.02%
- Cc1cc(C)n(S(=O)(=O)c2cccc([N+](=O)[O-])c2)n1 — higher, 3.73%
- Brc1ccc(-c2noc(CCc3ccccc3)n2)cc1 — higher, 5.43%
- CSc1ccc(CN2CCC(N3CC(C)OC(C)C3)CC2)cc1.O=C(O)C(=O)O (centres unmarked) — lower, -20.5%
- COC(=O)c1ccccc1NC(=O)Cn1cnc([N+](=O)[O-])c1 — higher, 12.2%
- Nc1cc(N)nc(SCc2ccccc2)n1 — lower, -7.61%
- COc1cc(NC(=O)c2ccc(OC)c([N+](=O)[O-])c2)ccc1NC(=O)c1cccs1 — lower, -37.3%
- COc1ccccc1NC(=O)c1c(Nc2ccccc2F)sc(C(=O)Nc2cccc(Cl)c2)c1N — higher, 1.42%
- CCN(CC)CC.COc1ccccc1-n1c(=S)[nH]c2c(sc(=S)n2-c2ccc(C)cc2C)c1=O — higher, 20.4%
- Cc1ccc(C(=O)NN2CC(O)=C(c3nc(-c4cccc([N+](=O)[O-])c4)cs3)C2=N)cc1 — higher, 27.6%
- CCCN(CCC)CCCNC(=O)c1cn(CC)c2ccc(S(=O)(=O)N3CCOCC3)cc2c1=O — higher, 12.8%
- CC(C)c1cc(C(=O)N2CCN(C(c3ccccc3)c3ccccc3)CC2)no1 — higher, -2.67%
- CCCCNC(=O)CSc1nc2cc3c(cc2c(=O)n1CCC(=O)NCCc1ccc(OC)c(OC)c1)OCO3 — higher, 30.6%
- Cc1oc2c(CN3CCCCC3)c(O)ccc2c(=O)c1-c1ccc(Br)cc1 — lower, -16.5%
- CC(=O)Nc1ccc(NC(=O)CN(C)S(=O)(=O)c2ccc3ccccc3c2)cc1 — higher, 17.5%
- C=CCNC(=O)CN1CCC(n2nnc3cc(C(F)(F)F)ccc32)CC1 — lower, -50.7%
- O=C(CCc1ccccc1)Nc1ccc(F)cc1F — lower, -21.2%
- CC(Sc1nc(-c2ccc(F)cc2)cs1)C(=O)N1c2ccccc2CC1C (centres unmarked) — higher, 12.9%
- COc1ccccc1/C=C/C(=O)OCC(=O)Nc1c(C)nn(-c2ccccc2)c1C — higher, 0.662%
- O=C(c1ccc(S(=O)(=O)NCc2ccco2)cc1)N1CCCC1 — higher, 4.6%
- O=C(c1ccccc1-n1cccc1)N1N=C(C(F)F)CC1(O)C(F)F (centres unmarked) — lower, -63.2%
- COc1ccc(-n2nnnc2SCC(=O)Nc2nnn(C)n2)cc1 — higher, -0.446%
- COCCNC(=O)CN(C(=O)CCC(=O)Nc1ccccn1)c1ccc(F)cc1 — higher, 14.3%
- CC(=O)c1cccc(NC(=O)c2sc3nc4n(c(=O)c3c2C)CCCCC4)c1 — lower, -4.86%
